Results reported in patent publication US5606038A, “Amphiphilic polyene macrolide antibiotic compounds” (Competitive Technologies, Inc., priority 1995, dated 1997).

Tested on: red blood cells
Assay: K+ release from red blood cells
Conditions: relative to critical micelle concentration

## COCCOCCOCCOCCOCCOCCNC(=O)[C@H]1[C@@H]2C[C@@H](O[C@@H]3O[C@H](C)[C@@H](O)[C@H](N)[C@@H]3O)/C=C/C=C/C=C/C=C/C=C/C=C/C=C/[C@H](C)[C@@H](O)[C@@H](C)[C@H](C)OC(=O)C[C@H](O)C[C@H](O)CC[C@@H](O)[C@H](O)C[C@H](O)C[C@](O)(C[C@@H]1O)O2 [Example II]
  concentration to release 50% of the K+ from red blood cells: essentially at their critical micelle concentration

## COCCNC(=O)[C@H]1[C@@H]2C[C@@H](O[C@@H]3O[C@H](C)[C@@H](O)[C@H](N)[C@@H]3O)/C=C/C=C/C=C/C=C/C=C/C=C/C=C/[C@H](C)[C@@H](O)[C@@H](C)[C@H](C)OC(=O)C[C@H](O)C[C@H](O)CC[C@@H](O)[C@H](O)C[C@H](O)C[C@](O)(C[C@@H]1O)O2 [Example I]
  concentration to release 50% of the K+ from red blood cells: essentially at their critical micelle concentration
